# “And” between values parts separate entries of the source, which are not always exact repeats. Equal values may be shown once. The campaign covered roughly 360,000 compounds. About 25,000 (6.9%) were called active. The shares of active, inactive and inconclusive entries below differ from those in the screen. Calls come from the whole dose curve; as a rule, active = well fitted inhibition curve with a large enough effect; inconclusive = small, poorly fitted or top-dose-only effect; inactive = flat fitted curve, though single readings scatter. Potencies beside an inconclusive call are fits to weak or partial responses and may not hold up.
# Molecular target: Luciferin 4-monooxygenase (Photinus pyralis) (UniProt P08659)
# Test: qHTS profiling assay for firefly luciferase inhibitor/activator using purifed enzyme and Km concentrations of substrates (counterscreen for miR-21 project); note: nearly all actives have a fitted effect of over 55% in size;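 for activity change, negative = inhibition: plate controls were vehicle for no effect and reference inhibitor for full effect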
# Settings: purified FLuc, luminescence inhibition; series mostly up to 57.5 µM; activity change, negative = inhibition: at the top concentration
# Procedure, shortened: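 Purified P. pyralis luciferase, 10 nM final, with Km-level 10 uM D-luciferin and 10 uM ATP in 50 mM Tris acetate pH 7.5, 10 mM Mg acetate, 0.01% Tween-20, 0.05% BSA; 6-point qHTS titration about 60 µM downward; luminescence read.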
# Potency is the fitted concentration of half-maximal effect; tags give direction and shape of the fitted curve.
# UniProt P08659, sequence (P08659 whole entry, looked up): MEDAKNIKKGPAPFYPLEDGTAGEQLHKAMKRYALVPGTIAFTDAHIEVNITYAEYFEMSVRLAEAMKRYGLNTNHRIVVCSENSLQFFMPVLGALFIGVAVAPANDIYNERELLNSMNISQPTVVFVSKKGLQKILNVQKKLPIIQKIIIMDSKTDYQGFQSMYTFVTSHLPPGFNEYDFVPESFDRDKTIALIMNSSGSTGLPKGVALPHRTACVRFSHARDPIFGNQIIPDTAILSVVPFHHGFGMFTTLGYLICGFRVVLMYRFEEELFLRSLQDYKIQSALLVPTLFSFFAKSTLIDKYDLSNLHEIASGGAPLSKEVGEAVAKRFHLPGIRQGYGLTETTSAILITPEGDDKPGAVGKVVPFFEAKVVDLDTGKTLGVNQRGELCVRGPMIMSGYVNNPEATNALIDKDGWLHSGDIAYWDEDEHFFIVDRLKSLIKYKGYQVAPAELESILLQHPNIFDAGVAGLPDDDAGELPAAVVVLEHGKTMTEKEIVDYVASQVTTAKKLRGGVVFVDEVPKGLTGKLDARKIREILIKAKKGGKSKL
Compound,Potency,"activity change, negative = inhibition"
Cc1occc1C(=O)N/N=C/C=C\c1ccccc1[N+](=O)[O-],"inconclusive: 26.9 µM [inhibitor, partial curve, poor fit]",
CS(=O)(=O)c1ccc(NCC2CCCO2)c([N+](=O)[O-])c1 (stereo not given),,inactive: 3.46%
COc1ccc(CNC(=O)c2ccc3c(c2)NC(=O)C(C)S3)cc1 (stereo not given),"inconclusive: 37.9 µM [inhibitor, single point]",
CC(=O)Nc1ccc(NS(=O)(=O)c2c(C)nc3sccn3c2=O)cc1,,inactive: -0.319%
COc1cccc(OCCCOc2ccc([N+](=O)[O-])cc2Cl)c1,"inconclusive: 23.9 µM [inhibitor, partial curve]",
O=C(c1ccc2c(c1)OCO2)N1CCCC(c2ccccc2)C1 (stereo not given),"inconclusive: 30.1 µM [inhibitor, partial curve, poor fit]",
O=C(Nc1cccc(Br)c1)c1ccc(CN2CCc3ccccc3C2)cc1,"inconclusive: 26.9 µM [inhibitor, single point]",
CCN(CC)c1ccc(/C=C(/C#N)C(=O)NC(C)C)o1,"inconclusive: 37.9 µM [inhibitor, partial curve, poor fit]",
O=C1CCCC/C1=C\Nc1ccc(O)cc1,"inconclusive: 16.9 µM [inhibitor, partial curve]",
O=C(/C=C/c1ccc2c(c1)OCO2)c1ccc[nH]1,active: 2.13 µM,
O=C(Nc1ccccc1)N1CCC(c2ccccc2)C1 (stereo not given),active: 12 µM,
CC(OC(=O)CNC(=O)c1sc2ccccc2c1Cl)C(=O)NC1(C#N)CCCCC1 (stereo not given),"inconclusive: 37.9 µM [inhibitor, single point]",
NC(=O)c1ccc(C23CC4CC(CC(C4)C2)C3)o1,"inconclusive: 26.9 µM [inhibitor, single point]",
O=C(NNC(=S)NCCc1ccccc1)c1ccc(Br)s1,"inconclusive: 37.9 µM [inhibitor, partial curve, poor fit]",
CC(=O)Nc1nonc1-c1nnc(SCC(=O)Nc2ccc(C)c(Cl)c2)n1-c1ccccc1,,inactive: -1.09%
CC(OC(=O)c1ccc2ccccc2c1)C(=O)N(C)Cc1ccccc1 (stereo not given),"inconclusive: 30.1 µM [inhibitor, partial curve, poor fit]",
CCOc1ccccc1NC(=O)c1oc2ccccc2c1NC(=O)C1CCCO1 (stereo not given),,inactive: -6%
O=C(NC(C(=O)N/N=C/c1ccccn1)c1n[nH]c(=O)c2ccccc12)c1ccccc1 (stereo not given),"inconclusive: 37.9 µM [inhibitor, partial curve, poor fit]",
O=C(O)c1cc(-c2ccc(Cl)cc2)n[nH]1,"inconclusive: 16.9 µM [inhibitor, partial curve]",
Cc1ccc(NC(=O)CSC(C)C(=O)OCC(=O)N2CCN(C(=O)c3ccco3)CC2)cc1 (stereo not given),"inconclusive: 37.9 µM [inhibitor, single point]",
COC(=O)c1cc2occc2n1Cc1cccc(C)c1,"inconclusive: 30.1 µM [inhibitor, partial curve, poor fit]",
CC1CCN(c2c([N+](=O)[O-])nn(-c3ccc4c(c3)OCCO4)[n+]2[O-])CC1,"inconclusive: 23.9 µM [inhibitor, partial curve]",
COCCNC(=O)CCN1C(=O)c2cccnc2Oc2ccc(C)cc21,,inactive: -2.15%

Compound,Potency,"activity change, negative = inhibition"
Nc1cc(N)nc(SCC(=O)Nc2cccc(S(=O)(=O)N3CCCCC3)c2)n1,"inconclusive: 13.5 µM [inhibitor, partial curve]",
C/C(=N\Nc1nc(C)cc(-c2ccccc2)n1)c1ccc(C)o1,"inconclusive: 23.9 µM [inhibitor, single point]",
Cc1ccc(C(=O)Nc2onc3c2CCCC3)cc1,active: 0.301 µM,
CCOc1ccc(Br)cc1S(=O)(=O)Nc1ccc(NC(=O)c2ccccc2C)cc1,"inconclusive: 26.9 µM [inhibitor, single point]",
O=C(O)COc1ccc(Nc2ccccc2)cc1,"inconclusive: 21.3 µM [inhibitor, partial curve, poor fit]",
Cc1ccccc1C(=O)Nc1ccc2c(c1)CCCN2C(=O)c1cccs1,,inactive: -14.7%
CCOC(=O)NNC(=O)CCn1c2c(c3ccccc31)CCCC2,,inactive: -8.83%
O=C(NCCCn1ccnc1)c1cc(Cl)cc(Cl)c1,,inactive: -1.3%
CC(C)S(=O)(=O)c1csc(NC(=O)Nc2cc(Cl)ccc2Cl)c1Cl,"inconclusive: 37.9 µM [inhibitor, partial curve, poor fit]",
COc1ccc(Nc2ccc(Cl)nn2)cc1,"inconclusive: 23.9 µM [inhibitor, single point]",
CCCCn1c(NCc2ccc(N(C)C)cc2)nc2ccccc21,"inconclusive: 26.9 µM [inhibitor, partial curve, poor fit] and inconclusive: 21.3 µM [inhibitor, single point]",
CCOc1ccc(C(=O)Nc2nnn(CC)n2)cc1,active: 12 µM,
COc1ccc(CNc2nc3ccc(C)cc3s2)c(OC)c1OC,"inconclusive: 26.9 µM [inhibitor, partial curve]",
O=C(O)Cn1ccc2cc(S(=O)(=O)N3CCCCCC3)ccc21,inactive,
Cc1ccc2c(COC(=O)c3cnc(C)cn3)cc(=O)oc2c1,"inconclusive: 19 µM [inhibitor, partial curve]",
O=C(Nc1cccc(Br)c1)c1cc2ccccc2o1,active: 2.39 µM,
CSc1ccc(CSCC(=O)N2CCN(S(=O)(=O)c3ccc(C)cc3C)CC2)cc1,,inactive: 6.03%
Clc1cccc(-n2ncc3c(NCCCn4ccnc4)ncnc32)c1,"inconclusive: 23.9 µM [inhibitor, partial curve]",
Cc1nc2cc(NC(=O)c3ccco3)ccc2n1C,active: 8.49 µM,
CC(/C=C1\SC(=S)N(NS(=O)(=O)c2ccccc2)C1=O)=C\c1ccccc1,"inconclusive: 37.9 µM [inhibitor, single point]",
COc1ccc(-c2onc(C)c2C)cc1S(=O)(=O)NCC1CCN(Cc2cccc(F)c2)CC1,,inactive: 3.47%
Cc1nc(NC(=O)c2ccccc2)sc1-c1csc(NCc2ccccc2)n1,"inconclusive: 13.5 µM [inhibitor, partial curve]",

# — PubChem BioAssay AID588342 (National Center for Advancing Translational Sciences (NCATS), 2011)
